Measurements taken from patent US20090175866A1, “TREATMENT OF B-CELL MALIGNANCIES” (priority 2004, published 2009).

Key:
FGFR3 [1] = biological target: T1, FGFR3 (Homo sapiens, UniProt P22607); assay: Affinity and Koff to FGFR3 measured by BIAcore; format: binding
FGFR3 [2] = biological target: T1, FGFR3; assay: FGFR3 domain specificity of binding

T1 sequence (P22607 23-806): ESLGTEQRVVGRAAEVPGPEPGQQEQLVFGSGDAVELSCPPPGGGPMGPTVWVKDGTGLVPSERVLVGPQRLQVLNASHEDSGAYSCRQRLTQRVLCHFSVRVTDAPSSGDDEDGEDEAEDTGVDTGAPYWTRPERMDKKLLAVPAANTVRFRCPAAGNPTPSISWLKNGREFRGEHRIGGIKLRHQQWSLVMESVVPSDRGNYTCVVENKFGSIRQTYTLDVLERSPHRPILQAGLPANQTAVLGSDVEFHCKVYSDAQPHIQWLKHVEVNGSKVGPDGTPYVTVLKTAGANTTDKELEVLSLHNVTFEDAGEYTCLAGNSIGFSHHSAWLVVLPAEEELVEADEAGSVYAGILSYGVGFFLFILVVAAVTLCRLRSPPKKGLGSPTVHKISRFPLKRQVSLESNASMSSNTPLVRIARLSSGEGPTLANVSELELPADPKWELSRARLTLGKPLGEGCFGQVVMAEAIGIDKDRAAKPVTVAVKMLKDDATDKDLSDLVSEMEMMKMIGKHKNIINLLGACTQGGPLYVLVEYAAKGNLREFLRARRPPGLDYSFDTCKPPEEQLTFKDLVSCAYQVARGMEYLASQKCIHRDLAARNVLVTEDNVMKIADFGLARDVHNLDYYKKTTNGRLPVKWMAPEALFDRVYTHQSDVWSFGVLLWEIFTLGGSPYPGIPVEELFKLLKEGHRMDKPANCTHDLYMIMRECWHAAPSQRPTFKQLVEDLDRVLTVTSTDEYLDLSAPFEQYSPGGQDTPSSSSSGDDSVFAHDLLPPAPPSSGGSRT

Row | Kd (FGFR3 [1]) | FGFR3 Domain Specificity (FGFR3 [2]) | Molecule
1 | 9 nM | 3c | PRO-021: HuCAL anti-FGFR3 clone; VH-CDR3 SEQ ID NO:4, VL-CDR3 SEQ ID NO:13 (antibody, V domains shown) VH: QVQLVQSGAEVKKPGSSVKVSCKASGGTFSSYAISWVRQAPGQGLEWMGGIIPIFGTANYAQKFQGRVTITADESTSTAYMELSSLRSEDTAVYYCARDNWFKPFSDVWGQGTLVTVSS VL: DIVMTQSPDSLAVSLGERATINCRSSQSVLYSSNNKNYLAWYQQKPGQPPKLLIYWASTRESGVPDRFSGSGSGTDFTLTISSLQAEDVAVYYCQQYDSIPYTFGQGTKVEIKRT
2 | 10 nM | 3c | PRO-024: HuCAL anti-FGFR3 clone; VH-CDR3 SEQ ID NO:5, VL-CDR3 SEQ ID NO:14 (antibody, V domains shown) VH: QVQLVQSGAEVKKPGSSVKVSCKASGGTFSSYAISWVRQAPGQGLEWMGGIIPIFGTANYAQKFQGRVTITADESTSTAYMELSSLRSEDTAVYYCARVNHWTYTFDYWGQGTLVTVSS VL: DIVLTQSPATLSLSPGERATLSCRASQSVSSSYLAWYQQKPGQAPRLLIYGASSRATGVPARFSGSGSGTDFTLTISSLEPEDFATYYCQQMSNYPDTFGQGTKVEIKRT
